Screen size: about 340,000 compounds; fewer than 10 were called active. Inconclusive results, whose numbers are uncertain, are shown with a selection of clear calls. Calls follow the shape of the dose curve; as a rule, active = well fitted inhibition curve with a large enough effect in the main read-out, with a control signal flat (not every such curve was filed as active); inconclusive = small, poorly fitted or top-dose-only effect, or effect the other way, or a change in a side signal; inactive = no such curve, though single readings can be large or run the other way. Potencies beside an inconclusive call are fits to weak or partial responses and may not hold up. A note “side channel” means that the fit belongs to a control or component signal, not to the main read-out.
The molecules below were run against Tumor susceptibility gene 101 protein (Homo sapiens) (UniProt Q99816) (assay: qHTS Assay for Iinhibitors of HIV-1 Budding by Blocking the Interaction of PTAP/TSG101). Details: Fluorescence polarization, FITC-PTAP peptide / Tsg101 binding; series mostly up to 115 µM.
Sequence of UniProt Q99816 (Q99816 whole entry, looked up, the tested form may be a part): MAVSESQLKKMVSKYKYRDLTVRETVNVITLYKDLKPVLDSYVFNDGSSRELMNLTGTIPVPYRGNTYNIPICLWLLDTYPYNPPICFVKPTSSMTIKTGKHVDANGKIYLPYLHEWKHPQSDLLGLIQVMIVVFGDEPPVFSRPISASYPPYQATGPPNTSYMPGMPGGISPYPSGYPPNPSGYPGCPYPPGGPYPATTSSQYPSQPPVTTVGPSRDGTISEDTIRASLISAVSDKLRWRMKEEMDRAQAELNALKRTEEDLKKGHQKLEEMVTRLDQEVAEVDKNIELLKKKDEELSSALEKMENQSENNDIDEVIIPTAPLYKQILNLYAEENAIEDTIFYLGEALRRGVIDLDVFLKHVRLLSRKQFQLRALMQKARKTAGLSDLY
Method in brief: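 Steps: Tsg101 binding domain dispensed (10 uM final), compounds pinned in DMSO, FITC-labeled PTAP-motif peptide added (50 nM final); after 20 min binding at room temperature, polarization measured.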
Potency is read from the fitted curve at half-maximal effect; tags tell the direction and shape of the fitted curve or compound fluorescence and quenching.

| Compound | Potency |
| --- | --- |
| CC(C)Oc1ccc(Nc2ncnc3ccccc23)cc1 | inactive |
| CN1C2CCC1/C(=C/c1cccn1C)C(=O)/C2=C\c1cccn1C | inconclusive: 50.1 µM [fluorescent, side channel, partial curve, poor fit] |
| COc1ccc(C(=O)Nc2nc(-c3ccc(OC)cc3)c(-c3ccc([N+](=O)[O-])cc3)s2)cc1 | inconclusive: 79.4 µM [fluorescent, side channel, single point] |
| O=[N+]([O-])c1ccc(O)c(/C=N/NC2=NS(=O)(=O)c3ccccc32)c1 | inconclusive: 35.5 µM [fluorescent, side channel, partial curve] |
| COc1cccc(C(=O)CN2C3=NCCCN3c3ccccc32)c1 | inactive |
| Nc1c(C(=O)c2ccccc2)sc2nsc(SCCN3CCCC3)c12 | inconclusive: 28.2 µM [fluorescent, side channel, partial curve, poor fit] |
| Cc1ccc[n+](-c2nc([O-])sc2/C=N/Nc2ccc([N+](=O)[O-])cc2)c1 | inconclusive: 79.4 µM [falling, partial curve, poor fit] |
| Cn1c(N)c(C(=O)CSc2nnc(NC3CCCCC3)s2)c(=O)n(C)c1=O | inactive |
| CCOc1cc(Br)c(Br)c(C=Nc2ccc(NC(C)=O)cc2)c1O | inconclusive: 56.2 µM [fluorescent, side channel, partial curve, poor fit] |
| CCC1=NN(C(=O)c2ccc(Cl)cc2)C(O)(c2ccccc2)C1 (configuration not stated) | inactive |
| Cc1ccc(N=Cc2nc(/C=C/c3cccc([N+](=O)[O-])c3)oc2O)cc1 | inactive |
| CCOC(=O)N1CCN(/C=C(\C#N)c2nc3ccccc3s2)CC1 | inconclusive: 50.1 µM [fluorescent, side channel, partial curve, poor fit] |
| S=C(NCCN1CCOCC1)N/N=C/c1c2ccccc2cc2ccccc12 | inconclusive: 79.4 µM [fluorescent, side channel, single point] |
| CCOc1ccc(C(=O)Nc2ccc(N3CCCC3)cc2)cc1 | inactive |
| CN(C)c1ccc(/C=C/C(=O)c2cccc(Br)c2)cc1 | inconclusive: 50.1 µM [fluorescent, side channel, partial curve, poor fit] |
| CCOC(=O)C1(Cc2cccc(F)c2)CCN(Cc2nc(CC)[nH]c2C)CC1 | inconclusive: 44.7 µM [fluorescent, side channel, partial curve, poor fit] |
| CCCCCCn1c(=O)[nH]c2nc3cc(N)c(C)cc3nc2c1=O | inconclusive: 17.8 µM [fluorescent, side channel, full curve] |
| CC1=CC2=NC(=O)/C(=C/c3coc4ccccc4c3=O)C(=N)N2O1 | inconclusive: 56.2 µM [fluorescent, side channel, partial curve, poor fit] |
| Cc1cnc(CN2CCc3c([nH]c4ccccc34)C2C2CCCCC2)[nH]1 (configuration not stated) | inactive |
| N#Cc1cc(C(=O)c2cc(F)ccc2O)cn(-c2nccs2)c1=O | inconclusive: 50.1 µM [fluorescent, side channel, partial curve, poor fit] |
| Cc1ccc2nc(-c3ccco3)c(Nc3ccccc3)n2c1 | inconclusive: 50.1 µM [fluorescent, side channel, partial curve, poor fit] |

| Compound | Potency |
| --- | --- |
| CN(C)c1ccc(N=Cc2nc(-c3ccccc3)oc2OC(=O)c2cccc(Br)c2)cc1 | inconclusive: 50.1 µM [fluorescent, side channel, partial curve, poor fit] |
| Cc1ccc(C(=O)c2cc([N+](=O)[O-])ccc2N2CCOCC2)c(C)c1 | inactive |
| CN1C(=O)NC(c2ccccc2[N+](=O)[O-])C2=C1CCCC2=O (configuration not stated) | inconclusive: 56.2 µM [fluorescent, side channel, partial curve, poor fit] |
| Cc1ccc(/C=c2\s/c(=C(/C#N)C(=O)N3CCCC3)n(Cc3ccco3)c2=O)s1 | inconclusive: 79.4 µM [fluorescent, side channel, partial curve, poor fit] |
| COc1ccccc1NC(=O)Cc1nc(CCl)cs1 | inactive |
| CCN1C(=O)/C(=C2/C=Cc3ccccc3N2C)OC1=S | inconclusive: 89.1 µM [fluorescent, side channel, partial curve, poor fit] |
| COc1cccc(/C=N/NC(=O)c2[nH]nc3c2CCc2ccccc2-3)c1O | inconclusive: 56.2 µM [fluorescent, side channel, partial curve, poor fit] |
| O=C(Nc1ccc2cn[nH]c2c1)c1c(Cl)cccc1Cl | inactive |
| CCOC(=O)N1CCN(c2nc3ccccc3nc2C(C#N)S(=O)(=O)c2ccc(C)cc2)CC1 (configuration not stated) | inconclusive: 39.8 µM [fluorescent, side channel, partial curve, poor fit] |
| CC1=C(C(=O)N(C)C)C(c2ccccc2OC(F)F)NC(=O)N1 (configuration not stated) | inactive |
| N#Cc1nc(COc2ccc(-c3ccccc3)cc2)oc1NCCCN1CCOCC1 | inactive |
| COc1ccc(/C=C2\SC(=S)N(CCCC(=O)N3CCOCC3)C2=O)cc1OC | inconclusive: 89.1 µM [fluorescent, side channel, partial curve, poor fit] |
| COC(=O)[C@@H]1C[C@]2(OC(=O)c3ccccc3)C=CC(=O)C[C@@H]2N1C(=O)OCc1ccccc1 | inactive |
| COCCn1c(C)cc(C(=O)CSc2n[nH]c(N)n2)c1C | inactive |
| O=C1Nc2ccc(Cl)cc2C12Nc1ccccc1-c1nnc(SCc3ccccc3F)nc1O2 (configuration not stated) | inconclusive: 89.1 µM [fluorescent, side channel, single point] |
| COc1ccc(O)c(/C=C2/SC(=S)N(Cc3ccccc3)C2=O)c1 | inconclusive: 15.8 µM [fluorescent, side channel, full curve, poor fit] |
| COc1ccccc1NS(=O)(=O)c1cc(NC(=O)c2cccs2)ccc1N1CCCCC1 | inactive |
| CN(/N=C/c1ccc(N(C)C)cc1)C1=NS(=O)(=O)c2ccccc21 | inconclusive: 50.1 µM [fluorescent, side channel, partial curve, poor fit] |
| O=[N+]([O-])c1ccc(N/N=C/c2ccc(OCc3cccc4ccccc34)cc2)nc1 | inconclusive: 50.1 µM [fluorescent, side channel, partial curve, poor fit] |
| O=c1c(Cl)c(NCCCO)cnn1-c1nc2ccccc2[nH]1 | inactive |
| CCOC(=O)/C=c1/s/c(=C/c2ccc3cc(OC)ccc3c2)c(=O)n1CC(=O)NCc1ccc2c(c1)OCO2 | inconclusive: 39.8 µM [fluorescent, side channel, partial curve, poor fit] |

| Compound | Potency |
| --- | --- |
| COc1ccc(NS(=O)(=O)c2ccc(Oc3ncccn3)cc2)cc1 | inactive |
| CCOC(=O)c1sc2nc(C)nc(SCC(=O)NC(C)CCc3ccccc3)c2c1C (configuration not stated) | inactive |
| O=C(COc1ccc2c(-c3ccccc3)cc(=O)oc2c1)NCc1ccccn1 | inactive |
| CCCCNc1ccc2c3c(cccc13)C(=O)N(CCCC)C2=O | inconclusive: 25.1 µM [fluorescent, side channel, partial curve] |
| CCCN1C=CC(=CC=C(C#N)C#N)C=C1 | inconclusive: 56.2 µM [fluorescent, side channel, partial curve, poor fit] |
| O=C(N/N=C/C=C/c1ccccc1)c1ccncc1 | inactive |
| CC(=O)N1c2ccccc2C(=O)C1N1CCCCC1 (configuration not stated) | inconclusive: 50.1 µM [fluorescent, side channel, partial curve, poor fit] |
| C=CCN1C(=O)S/C(=C\c2ccc(N3CCOCC3)cc2C)C1=O | inconclusive: 89.1 µM [fluorescent, side channel, single point] |
| Cc1ccc(CNC(=O)C2CCCN(S(=O)(=O)c3c(C)[nH]c(=O)[nH]c3=O)C2)cc1 (configuration not stated) | inconclusive: 22.4 µM [falling, partial curve, poor fit] |
| CC(C)OC(=O)c1cc(NC(=S)Nc2ccc([N+](=O)[O-])cc2)cc(C(=O)OC(C)C)c1 | inactive |
| Nc1nc(Cl)cc(N2CCC(c3cc(-c4ccc(Cl)cc4)n[nH]3)CC2)n1 | inactive |
| NC(N)=N/N=C/c1ccc2cccc(OCc3ccccc3)c2n1 | inactive |
| CCOC(=O)Cc1csc(NC(=O)c2sc3nc4c(C)cc(C)cc4cc3c2N)n1 | inconclusive: 39.8 µM [fluorescent, side channel, partial curve, poor fit] |
| CCOC(=O)/C(=C/C=C1\Sc2ccccc2N1CC)C(C)=O | inconclusive: 50.1 µM [fluorescent, side channel, partial curve, poor fit] |
| O=C(NC(=S)Nc1cccc(C(F)(F)F)c1)c1csnn1 | inactive |
| CCn1c(/C=C/c2cc[n+](C)cc2)nc2ccccc21 | inconclusive: 44.7 µM [falling, partial curve, poor fit] |
| N=C1/C(=C\c2coc3ccccc3c2=O)C(=O)N=C2SC=CN12 | inconclusive: 50.1 µM [fluorescent, side channel, partial curve, poor fit] |
| N#C/C(=C/c1ccco1)c1nc2ccccc2s1 | inconclusive: 79.4 µM [fluorescent, side channel, partial curve, poor fit] |
| C=CCn1c(N)c(C(=O)OC(C)(C)C)c2nc3ccccc3nc21 | inactive |
| C=CCn1c(=O)[nH]c2nc3cc(N=CN(C)C)c(C)cc3nc2c1=O | inconclusive: 50.1 µM [fluorescent, side channel, partial curve, poor fit] |

Source: PubChem BioAssay AID493005 (National Center for Advancing Translational Sciences (NCATS), 2010)
